Measurements published in patent publication US11242407B2, “High-affinity anti-MERTK antibodies and uses thereof” (Rgenix, Inc., priority 2019, dated 2022).

Tests used:
[1] = target: T1, MERTK (Homo sapiens, UniProt Q12866); experiment: Western blot of MERTK degradation in in vitro differentiated M2 macrophages; assay type: cell-based; parameters: MERTK expressing melanoma cells (SKMEL5) were incubated with increasing concentrations; host or cells: SKMEL5 human melanoma cells; conditions: 0.3 μg/mL
T1 sequence (Q12866 21-999): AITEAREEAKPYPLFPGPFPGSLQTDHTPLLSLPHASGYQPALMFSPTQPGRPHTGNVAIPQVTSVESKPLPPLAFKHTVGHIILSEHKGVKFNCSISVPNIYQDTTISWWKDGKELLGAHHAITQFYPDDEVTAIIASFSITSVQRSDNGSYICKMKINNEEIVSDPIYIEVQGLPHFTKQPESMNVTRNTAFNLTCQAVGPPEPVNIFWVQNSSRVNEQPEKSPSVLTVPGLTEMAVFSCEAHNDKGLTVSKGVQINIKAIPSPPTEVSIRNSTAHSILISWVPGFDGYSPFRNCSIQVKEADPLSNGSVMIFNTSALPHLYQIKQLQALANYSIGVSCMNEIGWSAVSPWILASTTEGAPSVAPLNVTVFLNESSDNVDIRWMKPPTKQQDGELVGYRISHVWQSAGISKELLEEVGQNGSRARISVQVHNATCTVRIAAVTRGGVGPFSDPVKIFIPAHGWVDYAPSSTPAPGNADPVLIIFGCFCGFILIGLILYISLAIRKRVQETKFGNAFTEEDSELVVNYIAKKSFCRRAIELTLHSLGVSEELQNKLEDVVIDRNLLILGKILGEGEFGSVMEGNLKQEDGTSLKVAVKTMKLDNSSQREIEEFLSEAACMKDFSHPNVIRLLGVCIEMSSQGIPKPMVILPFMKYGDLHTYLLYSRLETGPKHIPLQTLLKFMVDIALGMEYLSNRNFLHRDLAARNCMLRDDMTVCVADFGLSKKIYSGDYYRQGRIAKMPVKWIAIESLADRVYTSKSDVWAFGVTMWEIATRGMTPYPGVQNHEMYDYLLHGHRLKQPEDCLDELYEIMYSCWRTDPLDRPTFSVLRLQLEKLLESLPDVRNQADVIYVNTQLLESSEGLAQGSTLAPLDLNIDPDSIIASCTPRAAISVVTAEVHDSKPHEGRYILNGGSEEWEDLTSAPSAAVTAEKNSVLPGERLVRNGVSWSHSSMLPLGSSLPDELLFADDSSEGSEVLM
Protocol: PBMC-Derived Cell Culture and Macrophage Differentiation
The intermediate layer containing PBMCs was collected and cells washed with PBS with 2 mM EDTA three times. […] To measure cytokines, cell culture supernatants were collected and sent to Eve Technologies, Canada for Human Cytokine/Chemokine Array (HD42) analysis.
Whole-cell lysates were prepared in RIPA buffer (Sigma, 20-188) containing protease inhibitor (Sigma, 4693159001) and phosphatase inhibitor (Sigma, P2850 and P5726). Protein concentrations were measured using BCA Protein Assay Kit (ThermoFisher, 23225). Equal protein amounts were loaded on 4-20% Tris-Glycine gel (Bio-Rad, 4561094), then transferred to PVDF membranes (Bio-Rad, 1620177). After blocking with 5% BSA, membranes were probed with primary antibodies for 1 hr at room temperature. Bound antibodies were detected with HRP-conjugated secondary antibodies (Sigma, AP187P and AP181P) and visualized by ECL Western Blotting Substrate (ThermoFisher, 32106), using ChemiDoc Imaging Systems (Bio-Rad).

[2] = target: T1, MERTK; experiment: Internalization assay of z10 and ADCs (pHrodo, surface MERTK by flow cytometry); assay type: cell-based; parameters: stained with BV421-conjugated antibodies against MERTK to detect surface MERTK levels; endogenous in cells; host or cells: SKMEL5 human melanoma cells; conditions: SKMel5 cells
Protocol: Internalization of the antibody was determined by flow cytometry detecting pHrodo fluorescence, which is minimal at neutral pH and maximal in acidic environments, such as the lysosome.
The cells were trypsinized, strained through a 70 μm filter, and resuspended in FACS buffer (2% BSA, 10 mM EDTA, 25 mM HEPES, 0.1% sodium azide in Ca/Mg-free PBS) containing Human TruStain FcX blocking reagent (Biolegend, 422301). Cells were sequentially stained with BV421-conjugated antibodies against MERTK to detect surface MERTK levels (Biolegend, 367603) for 20 min on ice, and then stained with Fixable Viability Dye (eFluor 780) (Thermofisher, 65-0865-14) for 20 min on ice.
The Mean Fluorescence Intensities (MFI) of pHrodo and BV-421 were analyzed with LSRFortessa flow cytometer (BD Biosciences) and compensated data were plotted with GraphPad Prism. The MFI of pHrodo was normalized with Degree of Labeling (DOL) of pHrodo-labeled IgG, z10, z10-MMAE and z10-SN-38. DOL was calculated from A280 and A560 absorbance of the protein after labeling, according to the formula provided by the manufacturer.

[3] = test system: MERTK-expressing M1 macrophages

decrease of human MERTK ([1]; after 8 hours): Even greater decreases
decrease of human MERTK ([1]; approximately 4 hours): more than 50%
MERTK internalization ([2]; 6.7 nM pHrodo-labeled article): induce MERTK internalization
B1: z10: humanized anti-MERTK antibody; heavy chain SEQ ID NO: 112, light chain SEQ ID NO: 113 (antibody)
heavy: QVQLVQSGAEVKKPGASVKVSCKASGYTFTNYGMNWVRQAPGQGLEWMGWINTYTGEPTYADDFKGRVTFTTDTSTSTAYMELRSLRSDDMAVYYCARKSTVVSRYFDVWGQGTTVTVSSASTKGPSVFPLAPSSKSTSGGTAALGCLVKDYFPEPVTVSWNSGALTSGVHTFPAVLQSSGLYSLSSVVTVPSSSLGTQTYICNVNHKPSNTKVDKRV[human IgG1 Fc omitted]
light: DIQMTQSPSFLSASVGDRVTITCKASQDVGDAVTWYQQKPGKAPKLLIYWASTRHTGVPDRFSGSGSGTDFTLTISSLQPEDFATYYCQQYRSYPLTFGQGTKLEIKRTVAAPSVFIFPPSDEQLKSGTASVVCLLNNFYPREAKVQWKVDNALQSGNSQESVTEQDSKDSTYSLSSTLTLSKADYEKHKVYACEVTHQGLSSPVTKSFNRGEC
modifications: Antibody z10 Heavy Chain; Antibody z10/z11/z13 Light Chain
MERTK degradation ([2]; 6.7 nM, surface MERTK stained with BV421-conjugated MERTK antibody): degrade MERTK to a similar extent; also recorded: induce MERTK degradation
viability of M1 macrophages (CellTiter-Glo 2.0) [3]: neither z10 nor z10-MMAE nor z10-SN-38 nor the MERTK inhibitor UNC1062 affect the viability

“Also recorded” adds a separate entry of the source.
